# Test results taken from a collection of fitness landscapes (doi:10.1016/j.celrep.2020.107928).
# The full ranking holds about 81,000 sequences; the median of “one-hybrid fitness for binding NBS DNA” is about -0.1, and the highest 2% start at about 0.36. This is one part of the list.
# B1: Caulobacter ParB omega fusion; a variant is named by its letters at X, in order, B8GW30 (parent)
# chain: MESVVVGEPGMSEGRRGLGRGLSALLGEVDAAPAQAPGEQLGGSREAPIEILQRNPDQPRRTFREEDLEDLSNSIREKGVLQPILVRPSPDTAGEYQIVAGERAWRAAQRAGLKTVPIMVRELDDLAVLEIGIIENVQRADLNVLEEALSYKVLMEKFERTQENIAQTIGKSXSHVANXMRLLXLPDEVQSYLVSGELTAXHARAIAAAADPVALAKQIIEGGLSVRETEALARKAPNLSAGKSKGGRPPRVKDTDTQALESDLSSVLGLDVSIDHRGSTGTLTITYATLEQLDDLCNRLTRGI
# Variants of: B1
# Experiment: one-hybrid fitness for binding NBS DNA (the Noc-binding site; scaled: cognate 1, non-cognate 0); higher = stronger binding
# Conditions: with NBS DNA site
# Procedure, shortened: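 Bacterial one-hybrid selection in E. coli USO rpoZ- hisB- pyrF- with a HIS3 reporter carrying the site 19 bp from the promoter, screening Caulobacter ParB libraries with four specificity codons randomised (NNS). Cells grew 48 hours at 37°C on M9-minus-histidine plus 0.1 mM IPTG and 5 mM 3-AT. Plasmids before and after selection were Illumina-sequenced, three replicate libraries pooled, and variants under 10 reads dropped. Fitness is the log change in variant-to-wild-type read ratio, rescaled to cognate 1, non-cognate 0.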
row,Variant,one-hybrid fitness for binding NBS DNA
1,MQNG,≤ 0.2
2,YTPL,≤ 0.2
3,WYPR,≤ 0.2
4,VATN,≤ 0.2
5,NMHD,≤ 0.2
6,ASSF,≤ 0.2
7,KRMA,0.237
8,QPKH,≤ 0.2
9,KTLV,≤ 0.2
10,TGGY,≤ 0.2
11,LVEG,≤ 0.2
12,CVYS,≤ 0.2
13,ERSN,≤ 0.2
14,CPMG,≤ 0.2
15,LGLK,≤ 0.2
16,PQVS,≤ 0.2
17,QSSW,≤ 0.2
18,QAMH,0.219
19,AYGT,≤ 0.2
20,TMYG,≤ 0.2
21,VSTG,≤ 0.2
22,SMIV,≤ 0.2
23,CNHG,≤ 0.2
24,ARCD,≤ 0.2
25,APND,≤ 0.2

row,Variant,one-hybrid fitness for binding NBS DNA
1,GRNY,≤ 0.2
2,LMKC,≤ 0.2
3,RYMQ,≤ 0.2
4,TIWL,≤ 0.2
5,ILCR,≤ 0.2
6,GVPW,≤ 0.2
7,WHIR,≤ 0.2
8,IGWR,≤ 0.2
9,MHYV,≤ 0.2
10,TKKH,≤ 0.2
11,STVR,≤ 0.2
12,YHHS,≤ 0.2
13,HMTS,≤ 0.2
14,REAW,≤ 0.2
15,RMAW,≤ 0.2
16,LMIS,≤ 0.2
17,CVSC,≤ 0.2
18,QWRM,≤ 0.2
19,DHVT,≤ 0.2
20,EGTW,≤ 0.2
21,YIFD,≤ 0.2
22,IYST,≤ 0.2
23,YVPS,≤ 0.2
24,EVDL,≤ 0.2
25,STYC,≤ 0.2

row,Variant,one-hybrid fitness for binding NBS DNA
1,NIKH,≤ 0.2
2,LMQL,≤ 0.2
3,PHRH,≤ 0.2
4,YKFR,≤ 0.2
5,TPLI,≤ 0.2
6,MRDI,≤ 0.2
7,PYHD,≤ 0.2
8,RIKE,≤ 0.2
9,NECS,≤ 0.2
10,STLS,≤ 0.2
11,WRSE,≤ 0.2
12,FLED,≤ 0.2
13,AICR,≤ 0.2
14,QHMR,0.512
15,FYTC,≤ 0.2
16,AKEC,≤ 0.2
17,PWNC,≤ 0.2
18,NHPG,≤ 0.2
19,AANA,≤ 0.2
20,ALER,≤ 0.2
21,QTRQ,0.581
22,YQPF,≤ 0.2
23,CCEE,≤ 0.2
24,WANT,≤ 0.2
25,WHMC,≤ 0.2

row,Variant,one-hybrid fitness for binding NBS DNA
1,SFDG,≤ 0.2
2,INMT,≤ 0.2
3,KADD,≤ 0.2
4,DSNS,≤ 0.2
5,KMLT,≤ 0.2
6,PKTC,≤ 0.2
7,AKIT,≤ 0.2
8,AEAW,≤ 0.2
9,PKVV,≤ 0.2
10,VKWS,≤ 0.2
11,KVRV,≤ 0.2
12,WFED,≤ 0.2
13,LFHR,≤ 0.2
14,HQAS,≤ 0.2
15,QKIW,≤ 0.2
16,YSMG,≤ 0.2
17,KRYY,≤ 0.2
18,AGCG,≤ 0.2
19,QFKK,≤ 0.2
20,KLLT,≤ 0.2
21,SIMW,≤ 0.2
22,QEGR,≤ 0.2
23,DGPV,≤ 0.2
24,RENY,≤ 0.2
25,RSYT,0.322

row,Variant,one-hybrid fitness for binding NBS DNA
1,EIPG,≤ 0.2
2,ANSP,≤ 0.2
3,HPDR,≤ 0.2
4,EAKD,≤ 0.2
5,PRMR,≤ 0.2
6,RHEA,≤ 0.2
7,SNHH,≤ 0.2
8,GIQC,≤ 0.2
9,LMSV,≤ 0.2
10,HWNT,≤ 0.2
11,PVYS,≤ 0.2
12,LVAV,≤ 0.2
13,QMSH,≤ 0.2
14,VSQD,≤ 0.2
15,NHNP,≤ 0.2
16,EAKL,≤ 0.2
17,EEYS,≤ 0.2
18,GLAR,≤ 0.2
19,PIEM,≤ 0.2
20,TRDN,≤ 0.2
21,KKIL,≤ 0.2
22,KRPN,≤ 0.2
23,TVAG,≤ 0.2
24,IICG,≤ 0.2
25,SHYM,≤ 0.2

row,Variant,one-hybrid fitness for binding NBS DNA
1,SKKH,≤ 0.2
2,HHRC,≤ 0.2
3,KDMC,≤ 0.2
4,KEPS,≤ 0.2
5,TSAG,≤ 0.2
6,HMNR,≤ 0.2
7,YCYV,≤ 0.2
8,RQWY,≤ 0.2
9,TCER,≤ 0.2
10,RTQP,≤ 0.2
11,CGQG,≤ 0.2
12,LPPI,≤ 0.2
13,LEAL,≤ 0.2
14,CDAG,≤ 0.2
15,NHTI,≤ 0.2
16,WRPT,≤ 0.2
17,YKTL,≤ 0.2
18,TSFN,≤ 0.2
19,VFHS,≤ 0.2
20,GWVS,≤ 0.2
21,RMSY,≤ 0.2
22,KQVS,≤ 0.2
23,KFWG,≤ 0.2
24,ICRG,≤ 0.2
25,CTGL,≤ 0.2

row,Variant,one-hybrid fitness for binding NBS DNA
1,QVMN,≤ 0.2
2,RYRA,0.367
3,ATTK,≤ 0.2
4,VEWC,≤ 0.2
5,WIMN,≤ 0.2
6,ATAT,≤ 0.2
7,VRTS,≤ 0.2
8,QEAR,≤ 0.2
9,RVHN,≤ 0.2
10,WHSN,≤ 0.2
11,GGMM,≤ 0.2
12,NHTM,≤ 0.2
13,PLIA,≤ 0.2
14,PNFC,≤ 0.2
15,SPNE,≤ 0.2
16,TFPG,≤ 0.2
17,GSHI,≤ 0.2
18,SDCS,≤ 0.2
19,TALP,≤ 0.2
20,QTVP,≤ 0.2
21,PAPT,≤ 0.2
22,GAKS,≤ 0.2
23,QLYR,0.425
24,SMNT,≤ 0.2
25,KTQC,≤ 0.2

row,Variant,one-hybrid fitness for binding NBS DNA
1,LYSH,≤ 0.2
2,YNGV,≤ 0.2
3,CGAA,≤ 0.2
4,APGN,≤ 0.2
5,HSSQ,≤ 0.2
6,QSFG,≤ 0.2
7,RVDF,≤ 0.2
8,FAHG,≤ 0.2
9,RSDA,≤ 0.2
10,DHIC,≤ 0.2
11,GWPS,≤ 0.2
12,RELE,≤ 0.2
13,DTFA,≤ 0.2
14,FWAG,≤ 0.2
15,LCDI,≤ 0.2
16,GSRF,≤ 0.2
17,RAEN,≤ 0.2
18,QSNP,≤ 0.2
19,LQDG,≤ 0.2
20,CAPG,≤ 0.2
